# Measured values as given in publication PMC6919601, “Identification of Plasmodium dipeptidyl aminopeptidase allosteric inhibitors by high throughput screening” (PLoS ONE, 2019).
# Out of some 110,000 compounds screened, about 230 (0.21%) showed an effect of 50% or more. The list shows a part of the results.
# Molecular target: DPAP1 (Plasmodium falciparum, UniProt Q8IIJ9)
# Assay: primary screen, percent inhibition; read by cleavage of a fluorogenic dipeptide substrate; higher = more effect of the substance
# Design: species or system P. falciparum D10 trophozoite lysates; single well
# 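Also: 30 min substrate incubation versus DMSO and 10 µM JCP410 controls.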
# Chain of DPAP1 (Q8IIJ9 whole entry, looked up): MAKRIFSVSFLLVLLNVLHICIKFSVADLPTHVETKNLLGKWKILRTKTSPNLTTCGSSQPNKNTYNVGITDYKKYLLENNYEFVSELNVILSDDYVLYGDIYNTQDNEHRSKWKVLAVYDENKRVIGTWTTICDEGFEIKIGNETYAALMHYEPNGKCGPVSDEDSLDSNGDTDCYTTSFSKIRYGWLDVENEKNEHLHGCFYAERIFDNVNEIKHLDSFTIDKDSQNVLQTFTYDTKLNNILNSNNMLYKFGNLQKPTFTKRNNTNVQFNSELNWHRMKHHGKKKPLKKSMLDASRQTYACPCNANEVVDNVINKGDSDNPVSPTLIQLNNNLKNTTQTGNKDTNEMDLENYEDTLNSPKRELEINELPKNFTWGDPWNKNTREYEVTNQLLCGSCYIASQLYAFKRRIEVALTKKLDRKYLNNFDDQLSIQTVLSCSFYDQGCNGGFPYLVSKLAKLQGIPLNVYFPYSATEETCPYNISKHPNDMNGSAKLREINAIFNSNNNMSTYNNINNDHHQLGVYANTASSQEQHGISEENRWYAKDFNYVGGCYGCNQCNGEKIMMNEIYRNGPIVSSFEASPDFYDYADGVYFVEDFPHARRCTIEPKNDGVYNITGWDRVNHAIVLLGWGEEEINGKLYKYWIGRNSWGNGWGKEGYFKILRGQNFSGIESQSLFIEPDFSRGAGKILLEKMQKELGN
row,SMILES,% Inhibition @ 10 uM [%]
1,CN(Cc1ccccc1)S(=O)(=O)c1ccc2ncc(C(=O)N3CCC4(CC3)OCCO4)c(O)c2c1,-5.64
2,CCn1c(SCC(O)c2ccccc2)nc2ccccc21 (stereo not drawn),-1.31
3,C=CCNC(=O)/C(=C\c1ccc(-c2ccc(Cl)cc2)o1)NC(=O)c1ccccc1,2.45
4,Cc1ccc(CNc2cc(C)nc3nncn23)cc1,-4.39
5,Cc1c(C(=O)NCc2ccccc2Cl)oc2ccc3c(c12)C(=O)CC(C)(C)O3,-1.6
6,Cc1nn(C)c(C)c1/C=C/C(=O)c1ccc(Cl)cc1Cl,0.00706
7,Cc1ccc(S(=O)(=O)NCC2CCC(C(=O)N3CCN(Cc4ccccc4)CC3)CC2)cc1 (stereo not drawn),-2.72
8,N#CC1(Nc2ccccc2Cl)C(=O)Nc2ccccc21 (stereo not drawn),-2.96
9,CC(C)C[C@H](NC(=O)c1cc(-c2ccccc2Cl)c(-c2ccccc2Cl)s1)C(=O)NCC#N,-0.207
10,O=[N+]([O-])c1ccccc1C1CC(c2ccccc2)=NN1 (stereo not drawn),7.66
11,CC1CCN(S(=O)(=O)c2ccc(F)cc2)CC1,1.83
12,COc1ccccc1NC(=O)c1cccnc1,-4.49
13,O=S(=O)(NCC1CCCO1)c1ccc(-c2cc(C(F)(F)F)no2)s1 (stereo not drawn),-2.31
14,CC(Cc1cccc(C(F)(F)F)c1)N1CCN(C/C=C/c2ccccc2)CC1 (stereo not drawn),1.38
15,COCCNc1nn2c(=O)c3c4c(sc3nc2c2ccccc12)CCCCC4,11.5
16,COc1ccc(CN2CCN(C/C=C/c3ccccc3)CC2)cc1Br,-5.68
17,CC(C)c1ccc(C(=O)NCc2ccc(S(N)(=O)=O)cc2)cc1,-2.83
18,CC(C)CC(C(=O)NCC#N)c1cccc(-c2ccc(S(=O)(=O)N3CCOCC3)cc2)c1 (stereo not drawn),6.03
19,Cc1ccc(C(=O)Nc2ccc(S(=O)(=O)Nc3nccs3)cc2)cc1,-4.86
20,COc1cccc(CNC(=O)CCn2nc(C)c3c(C)n(-c4ccccc4)nc3c2=O)c1OC,-5.74
21,COc1ccc(-n2nc3c(c2NC(=O)c2ccc(Br)o2)CS(=O)(=O)C3)cc1,11

row,SMILES,% Inhibition @ 10 uM [%]
1,Cc1ccc(OCCn2cc(/C=C3/C(=O)NC(=O)N(Cc4ccco4)C3=O)c3ccccc32)cc1,-3.41
2,Cc1nn(CC(=O)NCc2ccc(OC(C)C)cc2)c(=O)c2c1sc1ccccc12,0.39
3,CC1=C(C(=O)NCc2ccccc2)SCCO1,-1.75
4,CCc1ccccc1NC(=O)Cc1ccc(OC)cc1,-0.0404
5,COc1ccc2c(c1)-c1nc(NC(=O)c3cccnc3)sc1CC2,5.67
6,CCOc1ccccc1-c1ccc(C(=O)N[C@@H](CC(C)C)C(=O)NCC#N)cc1,-3.04
7,O=C(NCCCN1CCOCC1)c1ccc(CS(=O)(=O)c2c(Cl)cccc2Cl)o1,-11
8,COc1cc(/C=C2\SC(N)=NC2=O)cc(OC)c1O,-6.06
9,CC(=O)C1C(=O)C=C(/C=C/c2ccccc2)CC1c1ccccc1 (stereo not drawn),4.08
10,NC(=O)C(=O)Nc1ccc(Cl)c(Cl)c1,2.94
11,COC(=O)/C(C#N)=C/c1c(Oc2ccc(Cl)c(C)c2)nc2c(C)cccn2c1=O,0.315
12,CN1C(=O)S/C(=C/c2ccccc2OCc2ccc(C(=O)O)cc2)C1=O,1.1
13,Cc1ccc(CN2C(=O)N/C(=C/c3ccccc3C)C2=O)cc1,-0.661
14,O=C(CNC(=S)N(Cc1ccccc1)Cc1cccnc1)NCc1ccc(F)cc1,-3.94
15,COc1ccccc1CNCCc1ccc(OC)c(OC)c1,-0.641
16,CCOc1ccc2c(c1)C(SCC(=O)NCCc1ccc(OC)c(OC)c1)CC1(CCCC1)O2 (stereo not drawn),1.27
17,COc1cccc(C2CC(=O)Nc3c2c(O)nc2nc4ccccc4n32)c1OC (stereo not drawn),-5.17
18,Cc1ccc(NC(=O)Cn2cnc3ccccc3c2=O)cc1C,12.3
19,c1ccc(CNc2ncnc3scc(C4COc5ccccc5O4)c23)cc1 (stereo not drawn),4.19
20,Cc1nc2c(-c3ccc(F)cc3)c(C)nn2c(C)c1CCC(=O)NCCCN1CCCC1=O,-0.465
21,CNC(=O)/C(C#N)=C/c1c(F)cccc1Cl,6.51

row,SMILES,% Inhibition @ 10 uM [%]
1,CC(C)CC(NC(=O)/C(=C\c1ccco1)NC(=O)c1ccccc1)C(=O)O (stereo not drawn),-2.87
2,COc1ccc(N(CC(=O)Nc2ccc(Cl)cc2C)S(=O)(=O)c2ccccc2)cc1OC,-7.58
3,Cc1ccccc1C(=O)N1CCC(Cc2ccccc2)CC1,1.35
4,CC(=O)c1ccc(-n2c(=O)c3ccccc3c3ccccc3c2=O)cc1,-4.49
5,COc1ccccc1CNS(=O)(=O)c1ccc(-c2cc(C)no2)s1,-5.31
6,CC(C)CC1C(C#N)=C(N)OC2=C1C(=O)CCC2 (stereo not drawn),1.13
7,CCOC(=O)c1cnc2cc(N(C)C)ccn2c1=O,3.48
8,Cc1nnc(SCC(=O)NCC(C)c2ccccc2)c2nn(-c3ccccc3)c(C)c12 (stereo not drawn),1.4
9,Cc1ccc(N2CCN(Cc3ccccn3)CC2)cc1,1.38
10,COc1ccc(OC)c(CNCc2c(C(=O)O)n(Cc3ccc(F)cc3Cl)c3cc(C)ccc23)c1,-0.717
11,Cc1cc(OCC(=O)N(Cc2cccc(F)c2)C2CCS(=O)(=O)C2)ccc1Cl (stereo not drawn),-1.35
12,CN(Cc1ccccc1)C(=O)Cn1ncc2ccsc2c1=O,-10.4
13,Cc1nn(C)cc1C(=O)NCc1ccccc1,-6.68
14,O=S(=O)(O)CCC[n+]1c(/C=C/c2ccc3c(c2)OCO3)sc2ccc(Cl)cc21,0.565
15,CCC(C)Cn1c(CCCO)nc2ccccc21 (stereo not drawn),-2.19
16,CN(C(=O)c1ccccc1C(=O)O)C1CC(C)(C)NC(C)(C)C1,-6.43
17,C=CCSC1=C(C#N)C(c2ccc(Cl)cc2)CC(=O)N1 (stereo not drawn),2.76
18,O=C1NC(=S)N(C(=O)c2ccc(F)cc2)/C1=C/c1cccnc1,2.7
19,O=C(Nc1nccs1)C1CCCN(S(=O)(=O)c2ccc3nc(O)ccc3c2)C1 (stereo not drawn),1.39
20,CC1CCN(C(=O)c2ccc(COc3ccccc3Cl)o2)CC1,-13.7
21,O=C1N=C(Nc2ccc(Br)cc2)S/C1=C\c1ccccn1,-10.8
